Out of some 150,000 compounds screened, about 540 (0.36%) showed an effect of 50% or more. Some of the results follow.
Test system: Plasmodium falciparum
Test: Primary screen in NF54 nanoGlo assay, in single point, at 2uM, 72h; a lower Z score goes with more inhibition
Type: functional, Erythrocyte
Conditions: timepoint 72 hour

| SMILES | % Inhibition [%] | Z score |
| --- | --- | --- |
| COCCN(CCNc1ncncc1Br)C1CC1 | -3 | 0.4 |
| C[C@@H](Cn1cccn1)OC(=O)c1cccnc1 | 0 | 0.07 |
| C=CCNCc1cc(Br)cc(OC)c1OCC | -2 | 0.23 |
| C[C@H]1CN(Cc2cnc(NCc3ccccc3)nc2)CCN1C | -16 | 1.57 |
| CC(NC(=O)C1CC(=O)N(C(C)C)C1)c1nnc2n1CCCCC2 (stereo unspecified) | -6 | 0.62 |
| CN(C)Cc1ccccc1Cn1cnc(-c2ccccc2)c1-c1c[nH]cn1 | 4 | -0.53 |
| COc1ccc(S(=O)(=O)N2CC[C@H](Oc3ncc(F)cn3)C2)cc1OC | -8 | 1.22 |
| CN(C)[C@@H](CNC1CC2(C1)CN(C(=O)OC(C)(C)C)C2)c1c(F)cccc1F | 4 | -0.45 |
| COc1ccccc1OC(=O)c1cc(-c2ccccc2)on1 | -7 | 0.87 |
| CC(=O)N1CC[C@@H]2N(C(=O)C(=O)c3cccn3C)CCC[C@@]2(CO)C1 | -3 | 0.59 |
| Cc1ccc(C(=O)N(CC2CCN(CCc3ccccc3C)CC2)C2CCCC2)cn1 | -17 | 1.54 |
| Cc1ccc(C2=C[C@@H](c3ccccc3)n3nnnc3N2CC(=O)N2CCOCC2)cc1 | -14 | 1.45 |
| O=C(CCn1nc(C(=O)N2CCc3ccccc32)ccc1=O)N1CCN(C(=O)c2ccco2)CC1 | 1 | -0.1 |
| Cc1cnccc1CN(C)C(=O)COc1cccnc1 | -9 | 1.26 |
| COC[C@H]1CCCN(S(=O)(=O)c2cnc3c(cnn3C)c2)CC1 | -8 | 1.07 |
| CCc1c(-c2cccc(C(=O)NCC3(Cn4ccnc4C)CC3)c2)cnn1C | -6 | 1.2 |
| C[C@]1(C(=O)NCc2ccccc2)CCCN(S(=O)(=O)c2cccc3nsnc23)C1 | 21 | -3.3 |
| CC(C)(C)c1ccc(C(=O)C(=O)Nc2ccn(CCc3ccncc3)n2)cc1 | -9 | 0.78 |
| CCCc1nnsc1C(=O)NCCn1ccc2ccn(C)c2c1=O | -6 | 1.12 |
| [2H]C([2H])C12CC(NC(=O)N1CC)c1ccccc1O2 (stereo unspecified) | -6 | 0.71 |
| COc1ccc(OC)c(S(=O)(=O)N2CCC3(CC2)CC3(F)F)c1 | 22 | -2.76 |

| SMILES | % Inhibition [%] | Z score |
| --- | --- | --- |
| Cc1ccncc1C(=O)N1CCN(C(=O)C(C)C)[C@@H]2CS(=O)(=O)C[C@@H]21 | -3 | 0.53 |
| O=S(=O)(C1CC1)N1CCCN(Cc2ccc(-c3ccn[nH]3)o2)CC1 | -13 | 1.32 |
| CC1(C)c2[nH]c3ccccc3c2C[C@H]2C(=O)N(c3ccccc3C(=O)O)C(=O)N21 | 5 | -0.64 |
| CCOCCCNC(=O)[C@H]1CCCN(c2nc3cccnc3s2)C1 | 4 | -0.34 |
| CCOC(=O)N1CCC(NC(=O)c2ccnc(OCC3CC3)c2)CC1 | -11 | 2.02 |
| CCCCOc1ccc(C(=O)c2c(C)c(C#N)c(=O)n(C[C@H]3CCCO3)c2O)cc1 | -12 | 1.67 |
| CCOC(=O)c1ccc2[nH]cnc2c1NC(C)=O | 32 | -4.06 |
| COc1cccc(C(=O)NCC2=CCCN(CC(N)=O)C2)c1 | -22 | 2.79 |
| CC(=O)N[C@H]1C[C@H]2CN(C(=O)c3ncoc3-c3cccc(C)c3)CC(=O)N2C1 | -11 | 1.49 |
| O=C(Nc1ccn(CCc2ccncc2)n1)[C@H]1CCCC12OCCO2 | 1 | -0.2 |
| O=C(NC1CCCCCCC1)[C@@H](c1ccccc1)n1cnnn1 | -13 | 1.56 |
| CCc1ccc(CN2CCc3c(C(=O)N(C)[C@@H](C)C(=O)NC)csc3C2)nc1 | 5 | -0.69 |
| Cn1nc(C(=O)NC2CCCCC2)cc1C(=O)NC1CCCCC1 | 32 | -1.32 |
| CC(=O)Nc1ccccc1CC(=O)N1CCOC[C@@]1(C)C1CC1 | -18 | 3.25 |
| Fc1ccc2c(c1)CC[C@@H]2NCc1ccc2c(c1)CCO2 | -6 | 0.73 |
| C[C@H](Nc1ccc(C(=O)N(C)C)nn1)c1cc(F)ccc1F | -7 | 0.84 |
| O=S(=O)(c1cc(Cl)ccc1Cl)N(C1CCCC1)C1CC1 | 3 | -0.4 |
| CCC(C)CN1C(=O)C(Cc2ccccc2)NC12CCN(C(=O)c1ccccc1Cl)CC2 (stereo unspecified) | -6 | 0.91 |
| O=C(Cn1cc(C(=O)c2ccncc2)c(=O)c2ccc(F)cc21)Nc1cccc(F)c1 | -4 | 0.52 |
| O=C(Nc1nc2c(s1)CCCC2)N1C2CCC1CC(Oc1ccccn1)C2 (stereo unspecified) | -3 | 0.36 |
| Cc1nc(-c2nccn2CCNC(=O)c2cccnc2)co1 | -2 | 0.31 |

| SMILES | % Inhibition [%] | Z score |
| --- | --- | --- |
| COc1cc2c(cc1OC)[C@H](c1ccccc1Cl)N(C(=O)Cc1ccccc1)CC2 | 5 | -0.94 |
| Cc1nsc(NC2CC2)c1C(=O)NCCN1CCCCC1 | 1 | -0.2 |
| COCC(NC(=O)c1cnn2ccc(N)cc12)C1CCCOC1 (stereo unspecified) | 11 | -1.99 |
| CN1C[C@@H]2CC[C@H]1CN(C(=O)c1cccc(N3CCS(=O)(=O)CC3)c1)C2 | 11 | -1.52 |
| Cc1nc(-c2ccc(NC(=O)CCc3cccs3)cc2)co1 | -7 | 0.99 |
| Cc1nc([C@@H](C#N)NC(=O)OC(C)(C)C)cs1 | 34 | -3.9 |
| Cc1ccc(NC(=O)c2ccccc2N2C(=O)[C@@H]3Cc4c([nH]c5ccccc45)C(c4ccccc4)N3C2=O)cc1C (stereo partly specified) | 5 | -0.61 |
| CCCN(Cc1c(-c2ccccc2)noc1N1CCCCC1)C(=O)c1ccccc1F | -14 | 1.38 |
| COc1ccc(OCc2n[nH]c(-c3ccc(C(C)C)[nH]c3=O)n2)cc1 | -2 | 0.19 |
| C[C@H]1CN(C(=O)NCc2nc(C3CC3)no2)CCN1c1ccccc1 | 0 | -0.08 |
| CCN(CCCOc1ccccc1)CC(=O)Nc1c(Cl)cccc1Cl | -10 | 1.31 |
| CC[C@@H](c1cccnc1)N(C)C(=O)c1cnc(N2CCN(C)CC2)nc1C | 1 | -0.25 |
| Cc1cc(N)cc(F)c1Br | 2 | -0.35 |
| Cc1ccc(S(=O)(=O)Oc2ccc(C)cc2-c2nc3ccccc3o2)cc1 | -2 | 0.26 |
| COC(C)c1cccc(NC(=O)NC(C)CC(C)(C)OC)c1 (stereo unspecified) | 1 | -0.11 |
| CC(NCC(C1CC1)N(C)C)C(C)(C)C (stereo unspecified) | 3 | -0.32 |
| COc1cccc(CNC(=O)Cn2cccc2-c2nc(-c3ccc4c(c3)OCO4)no2)c1 | -10 | 1.27 |
| CCn1cncc(NC(=O)[C@@H]2CCO[C@H]2C2CC2)c1=O | 1 | -0.13 |
| CCC(NC(C)C(=O)N(C)C)c1c(C)noc1C (stereo unspecified) | -11 | 0.99 |
| O[C@H]1CC[C@H](CN2CCN(c3ccc(F)cc3)CC2)CC1 | -25 | 2.23 |
| Cc1cccc2c1O[C@H](C(=O)N1CCOc3c1c(C)nn3C)C2 | 11 | -1.57 |

| SMILES | % Inhibition [%] | Z score |
| --- | --- | --- |
| Cc1cc(NC(=O)C2C3CCC(C3)C2NC(=O)OC(C)(C)C)n(C)n1 (stereo unspecified) | -3 | 0.35 |
| C(#Cc1ccccc1)C[N+]1(CC#Cc2ccccc2)CCOCC1 | 3 | -0.23 |
| O=C(Nc1ccc(Br)cc1)C1CCN(c2cc(-c3ccc(F)cc3)ncn2)CC1 | 6 | -0.74 |
| CC(C)[C@H](NC(=O)c1cnn2c1CCC2)c1cnn(C)c1 | -7 | 1.4 |
| CCc1ccc(S(=O)(=O)Nc2ccc3c(c2)C(=O)N(CC)c2ccccc2O3)cc1 | -17 | 1.95 |
| Cc1cc(C)cc(NC(=O)NC2(CN(C)C)CCC2)c1 | 5 | -0.49 |
| Cc1nc(NCC2(O)CCOCC2)nc(C)c1CC(C)C | -9 | 0.8 |
| c1ccc(CC2(NCc3ncc[nH]3)CCCC2)cc1 | -4 | 0.52 |
| CCNC(=O)C(C)(C)NC(=O)[C@H]1C[C@@H]1c1ccccc1 | -8 | 0.98 |
| Cc1cc(C)cc(NC(=O)N2C[C@H](c3nc(-c4cccnc4)no3)[C@@H](C)C2)c1 | -12 | 1.43 |
| CC[C@H]1CN(CN2C(=O)NC3(CCCCC3)C2=O)CCO1 | -3 | 0.47 |
| C[C@@H](Cn1cncn1)N1CCC2(CC1)CN(CCc1ccccc1)C(=O)O2 | -1 | 0.09 |
| CCc1nc(N2CCCC2=O)sc1C(=O)NCc1ccccc1C | -10 | 0.89 |
| CCCc1sc(N(C(=O)c2ccc(Cl)cc2Cl)c2ccc(OC)cc2)nc1-c1ccccc1 | -9 | 1.46 |
| Cn1c([C@H]2CCCN(S(C)(=O)=O)C2)nn(CC(=O)NCc2ccc3c(c2)OCO3)c1=O | -9 | 1.33 |
| C[C@@H](c1ccccc1)n1nccc1NC(=O)NCCN1CCCCC1=O | -1 | 0.14 |
| Cc1ccccc1N1C[C@@H](C(=O)Nc2ccc(S(=O)(=O)N3CCOCC3)cc2)CC1=O | 15 | -1.84 |
| Fc1cccc(Cn2ncc3[nH]c(-c4cccc5nonc45)nc32)c1 | 6 | -0.98 |
| Cc1cccc(NC(=O)CN2CCN(C(=O)c3cc4c(s3)CCC4)CC2)c1C | -3 | 0.44 |
| COc1ccc(NC(=O)C2CC3CCC2C3)cn1 (stereo unspecified) | -4 | 0.62 |

Source: ChEMBL document CHEMBL4888484, “Replenishing the malaria drug discovery pipeline: Screening and hit evaluation of the MMV Hit Generation Library 1 (HGL1) against asexual blood stage Plasmodium falciparum ,using a nano luciferase reporter read-out” (2022)
